According to article PMC4336329 (PLoS ONE, 2015):
The campaign covered roughly 310,000 compounds. About 14,000 (4.5%) showed an effect of 50% or more. The effect is printed as a negative number. The list shows a part of the results.

Target: human ether-à-go-go-related gene (hERG) potassium channel (human, UniProt Q12809)
Experiment: primary screen, population patch clamp on CHO cells stably expressing hERG
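Also: peak tail current of the secondary pulse compared with the same well before compound.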

Sequence of human ether-à-go-go-related gene (hERG) potassium channel (Q12809 whole entry, looked up): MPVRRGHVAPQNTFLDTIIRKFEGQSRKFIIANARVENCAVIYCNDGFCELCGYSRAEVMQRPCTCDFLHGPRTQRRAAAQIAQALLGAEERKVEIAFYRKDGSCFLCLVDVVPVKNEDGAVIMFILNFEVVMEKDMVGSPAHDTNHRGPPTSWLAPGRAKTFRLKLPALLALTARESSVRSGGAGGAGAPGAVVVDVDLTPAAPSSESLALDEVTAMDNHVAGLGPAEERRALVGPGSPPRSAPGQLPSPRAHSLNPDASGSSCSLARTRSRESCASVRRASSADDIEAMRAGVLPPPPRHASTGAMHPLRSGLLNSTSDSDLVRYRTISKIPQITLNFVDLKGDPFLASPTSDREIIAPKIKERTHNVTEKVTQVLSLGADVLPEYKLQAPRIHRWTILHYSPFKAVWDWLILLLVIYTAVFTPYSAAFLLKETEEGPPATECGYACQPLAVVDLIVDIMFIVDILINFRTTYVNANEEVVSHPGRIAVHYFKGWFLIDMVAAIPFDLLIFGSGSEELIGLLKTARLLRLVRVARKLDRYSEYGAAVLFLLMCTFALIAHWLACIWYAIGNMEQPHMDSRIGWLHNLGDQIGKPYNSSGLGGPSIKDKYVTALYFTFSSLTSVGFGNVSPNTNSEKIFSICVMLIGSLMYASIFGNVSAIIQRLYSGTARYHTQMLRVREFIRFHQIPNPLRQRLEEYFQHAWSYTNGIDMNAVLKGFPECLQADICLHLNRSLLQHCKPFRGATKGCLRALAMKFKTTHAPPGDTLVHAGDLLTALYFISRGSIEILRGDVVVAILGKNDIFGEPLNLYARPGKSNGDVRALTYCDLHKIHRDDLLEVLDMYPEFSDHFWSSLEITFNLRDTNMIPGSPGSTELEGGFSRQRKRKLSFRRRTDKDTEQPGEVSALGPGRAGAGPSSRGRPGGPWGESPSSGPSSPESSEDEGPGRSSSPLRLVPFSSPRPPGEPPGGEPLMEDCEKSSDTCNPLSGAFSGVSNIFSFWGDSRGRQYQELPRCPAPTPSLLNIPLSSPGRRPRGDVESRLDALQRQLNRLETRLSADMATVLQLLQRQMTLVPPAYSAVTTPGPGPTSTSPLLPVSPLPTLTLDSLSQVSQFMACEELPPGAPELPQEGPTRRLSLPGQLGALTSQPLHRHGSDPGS

SMILES	hERG current change (%, negative = inhibition) at 10uM
CCCC(c1nnnn1Cc1ccco1)N1CCN(c2ccccc2)CC1.Cl (stereo not drawn)	-19.6%
CCOC(=O)c1c(C)n(C)c2ccc(OCC(O)CN3CCN(C)CC3)cc12.Cl (stereo not drawn)	-2.18%
CCSc1nnc(SCC(=O)NC2CCCCC2)s1	1.38%
CCCn1c(=O)c2ccccc2n2c(SC(C)C(N)=O)nnc12 (stereo not drawn)	12.2%
CC(C)N(C(C)C)S(=O)(=O)c1ccc(N2CCc3ccccc3C2)nc1	12.3%
CCN(CC)C(=O)C(=O)N/N=C/c1ccc(Br)cc1	-5.34%
Cc1nnc(NC(=O)CSc2ccc(-c3ccco3)nn2)s1	9.75%
COc1ccc(C(C(=O)NCc2ccccc2)N(Cc2cccnc2)C(=O)c2snc(C(N)=O)c2N)cc1OC (stereo not drawn)	-9.91%
Cc1nc(CS(=O)c2ccc(Cl)cc2)cc(N2CCOCC2)n1 (stereo not drawn)	10.1%
CN(C)c1ccc(C2C3C(=O)NC(=O)C3ON2c2ccc(Cl)cc2)cc1 (stereo not drawn)	-64%
O=C1Nc2ccccc2C1=O	3.21%
CCn1c(CC(=O)Nc2ccc(C)c(Cl)c2)nnc1SCC(=O)Nc1nc(C)cs1	0.625%
CN(C)C(=O)O/N=C(\N)COc1ccc(C(C)(C)C)cc1	4.28%
N=C1S/C(=C\c2ccccc2F)C(=O)N1c1ccc(F)cc1	16%
O=C(COC(=O)CSc1ccc2ccccc2c1)NCc1ccc2c(c1)OCO2	16.3%
COc1ccccc1C1CC(c2c(-c3ccccc3)c3cc(Cl)ccc3[nH]c2=O)=NN1S(C)(=O)=O (stereo not drawn)	12.5%
N#Cc1ccccc1OCC(=O)OCC(=O)NC1CCCC1	2.74%
CCOc1cccc(-c2c(C(=O)N/N=C/c3ccncc3)nnn2-c2nonc2N)c1	-9.65%
O=C(O)c1cccc(N2C(=O)c3cc([N+](=O)[O-])cc4cc([N+](=O)[O-])cc(c34)C2=O)c1	20.8%
O=C(Nc1cccc2c1CCCC2)c1cc([N+](=O)[O-])cc([N+](=O)[O-])c1	8.9%
CN1c2ccsc2C(O)=C(C(=S)Nc2ccc(F)c(Cl)c2)S1(=O)=O	9.37%

SMILES	hERG current change (%, negative = inhibition) at 10uM
Cc1ccc(NC(=S)N(Cc2cccs2)Cc2cc3cc(C)ccc3[nH]c2=O)cc1	9.62%
O=C(Nc1nnc(S(=O)(=O)N2CCOCC2)s1)c1ccccc1F	16.7%
C=CCn1c(SCC(=O)N(C)C2CCS(=O)(=O)C2)nnc1-c1ccncc1 (stereo not drawn)	-1.94%
CCn1c(=O)c(C(=O)Nc2ccccc2S(N)(=O)=O)c(O)c2ccccc21	15.8%
CC(=O)N1CCN(C2=NC(=O)C(=C3CCCCC3)S2)CC1	-23.8%
COc1cc2c(cc1NC(=O)CCCN1C(=O)CCC1=O)oc1ccccc12	-5.16%
O=C(/C=C/c1cn(CC(O)CN2CCOCC2)c2ccccc12)c1cccs1 (stereo not drawn)	-21.8%
O=C(CSc1nnc(CNC(=O)c2cccs2)o1)Nc1ccccc1	3.08%
CCN(CC)c1ccc(C(=S)NCc2ccccc2)cc1	13%
Cc1cccc(CC2CC(=O)N(CCc3ccc4c(c3)OCO4)C2=O)c1 (stereo not drawn)	34.2%
COC(=O)C(C(=O)OC)c1ccccc1[N+](=O)[O-]	15.3%
Cc1ccc(S(=O)(=O)NC(=S)c2ccccc2)cc1	15.8%
CCCCC(=O)NC1(C(F)(F)F)NC(=O)N(C)C1=O (stereo not drawn)	11.3%
Cc1ccc(C)c(N(C(=O)c2snc(C(N)=O)c2N)C(C(=O)NCC2CCCO2)c2ccc(C)o2)c1 (stereo not drawn)	3.36%
COc1ccc(OCc2cc(C(=O)N(C)C3CCOCC3)no2)c2ccccc12	-17.5%
C[C@@H]1C[C@H](Nc2ccccc2)c2ccccc2N1C(=O)c1cccnc1	-14.4%
COCCCn1c(=NC(=O)c2ccncc2)c(C#N)cc2c(=O)n3cccc(C)c3nc21	-68%
O=C(COC(=O)c1ccc[nH]c1=O)NC1CCCC1	19.3%
Cc1ccc(C(=O)NNC(=O)COC(=O)COc2ccccc2C#N)cc1	12.8%
CCN(c1ccc(OC)cc1)S(=O)(=O)c1ccc2c(c1)CC(C)N2C(=O)C1CC1 (stereo not drawn)	19.5%
COc1ccc(OC)c2sc(N(CCCN(C)C)C(=O)c3ccc(S(=O)(=O)N4CCc5ccccc5C4)cc3)nc12.Cl	-8.54%

SMILES	hERG current change (%, negative = inhibition) at 10uM
COc1ccc(/C=N/NC(=O)c2ccccc2O)cc1CSc1ccccn1	-1.66%
COc1ccc(/C=N/NC(=S)Nc2cc(C(F)(F)F)ccc2Cl)cc1	12.3%
COc1ccc(CCN(CC(=O)NC2CCCC2)C(=O)Cn2nnc(-c3ccc(C)o3)n2)cc1OC	-20.6%
COc1ccccc1NC(=O)c1ccc(NC(=O)COC(=O)CCC2CCCC2)cc1	26%
CCc1ccc(OCC(=O)c2c(O)c3ccccc3oc2=O)cc1	9.48%
Cc1ccccc1NC(=O)NNC(=O)CCc1ccccc1	7.34%
CCOC(=O)c1ccc(NC(=O)CN(c2ccc(C)cc2)S(=O)(=O)c2c(C)nn(C)c2C)cc1	-6.08%
O=C(NCc1ccc2c(c1)OCO2)C1CCC(CNS(=O)(=O)c2ccc(Cl)cc2)CC1 (stereo not drawn)	-6.18%
COc1cc2c(cc1OC)-c1c(OC)c(OC)cc3c1[C@H](C2)[N+](C)(C)CC3.[I-]	-2.09%
CCn1c(C)cc(C(=O)CN2C(=O)c3ccccc3S2(=O)=O)c1C	14%
CSCCC(NS(=O)(=O)c1cc(C(=O)O)ccc1Cl)C(=O)O (stereo not drawn)	45%
COc1ccc(/C=N/NC(=O)c2cc(C34CC5CC(CC(C5)C3)C4)[nH]n2)cc1OC	-1.14%
COc1ccccc1OCC(=O)Nc1nc(-c2ccc(S(=O)(=O)N3CCOCC3)cc2)cs1	16.5%
COc1cccc(C(=O)CSc2nnc(-c3cc(OC)cc(OC)c3)o2)c1	-8.99%
N#Cc1c(Oc2ccc3ccccc3c2)sc(C(=O)c2ccccc2)c1N	11.1%
CCC1COCCS(=O)(=O)N1Cc1ccc(Cl)cc1 (stereo not drawn)	-8.92%
Cc1ccc(C(=O)N2CCN(c3ccccn3)CC2)cc1	-14.3%
CCc1ccc(CNCCc2ccc(F)cc2)cc1	-72.8%
CCCCC1=NN2CCS(=O)(=O)N=C2S1	8.61%
CC(C)CC(NC(=O)c1ccccc1)C(=O)N/N=C/c1ccco1 (stereo not drawn)	-2.87%
COCCn1c(SCC(=O)Nc2cc(OC)ccc2OC)nc2c(c1=O)SC(C)C2 (stereo not drawn)	-18.5%

SMILES	hERG current change (%, negative = inhibition) at 10uM
O=C(COC(=O)Cc1ccc(F)cc1)NC(=O)c1ccccc1	5.1%
COc1ccc(/C=C2\Oc3cc(OCC(=O)N4CC(O)C[C@H]4C(=O)O)ccc3C2=O)cc1OC (stereo partly drawn)	6.83%
O=C(O)c1cc([N+](=O)[O-])c(Nc2cccc3ccccc23)c([N+](=O)[O-])c1	3.66%
CC1CCCCN1C(=O)Cn1c(=O)n(C2CCCCC2)c(=O)c2ccccc21 (stereo not drawn)	-7.29%
COC(=O)Oc1nsnc1N1CCOCC1	14.9%
S=C(NCc1ccccc1)NNc1ccccc1	4.63%
CCCCc1cc(=O)oc2cc(C)cc(OCC(=O)Nc3cccnc3)c12	26.7%
C/C=C(\C)C(=O)N[C@@H](c1ccccc1)[C@@H](O)C(=O)O[C@H]1C[C@@]2(O)[C@@H](OC(=O)c3ccccc3)C3[C@](C)(C(=O)[C@H](OC(C)=O)C(=C1C)C2(C)C)[C@@H](O)C[C@H]1OC[C@@]31OC(C)=O (stereo partly drawn)	-5.14%
COc1ccc(OC)c(N(CC(=O)NCCSC2CCCCC2)S(=O)(=O)c2ccccc2)c1	16%
O=C(O)Cc1coc2ccc3ccccc3c12	6.44%
CS(=O)(=O)N1CCc2ccccc2C1	0.516%
CCOCCCNC(=O)c1ccc2c(=O)n(CCCOCC)c(=S)[nH]c2c1	2.91%
COc1ccc2cc1Oc1ccc(cc1)C[C@H]1c3cc(c(OC)cc3CCN1C)Oc1c(OC)c(OC)cc3c1[C@H](C2)N(C)CC3	-37.4%
COc1ccc(N(CC(=O)NCCc2ccc(S(N)(=O)=O)cc2)S(=O)(=O)c2c(C)noc2C)cc1	10.6%
CCCc1c(C)[nH]c2nc3ccccc3n2c1=O	12.4%
CCN(CC(=O)NCc1cccs1)C(=O)c1ccc(S(=O)(=O)N(CC)c2ccccc2)cc1	-61.4%
Cc1ccc(NC(=O)c2cc3c(s2)CCC3)cc1S(=O)(=O)N1CCOCC1	9.28%
COc1ccc(Oc2nnnn2-c2ccccc2)cc1	-16.6%
COc1cc(/C=C/C(=O)O)cc(S(=O)(=O)N2CCCc3ccccc32)c1OC	10.7%
Cc1ccccc1NC(=O)C1CCN(C(=O)N2CCOc3ccccc32)CC1	-8.57%
CCCCCCCCCc1nc2sc3c(c2c(=O)n1NC(=O)c1ccc([N+](=O)[O-])cc1)CC(C)(C)OC3	-35.9%
